Out of some 130,000 compounds screened, about 1,900 (1.5%) were called active. The inconclusive results got no clear call from the source; some entries with a clear call stand among them for comparison. The call rests on the fitted dose curve; in most records, active means well fitted cell-killing curve with a large enough effect; inconclusive means small, poorly fitted or top-dose-only effect; inactive means no such curve, though single readings can be large or run the other way. Potencies beside an inconclusive call are fits to weak or partial responses and may not hold up.
Experiment: qHTS Screen for Compounds that Selectively Target Cancer Cells with p53 Mutations: Cytotoxicity of p53ts Cells at the Nonpermissive Temperature; further: nearly all actives have a fitted effect of over 55% in size
Conditions: H1299-p53A138V viability at 39C, ATP luminescence, 24 h; activity change, negative = cell killing: at 46.1 µM (top of the series)
For `Cn1c(=O)c(-c2ccc(F)cc2)nc2cnc(OCc3ccccc3)nc21`, the “activity change, negative = cell killing” value was inactive: -9.29%.
With `Cc1cc(C)cc(-n2c(SCC(=O)Nc3cccc(F)c3)nc3c([nH]c4ccccc43)c2=O)c1` the activity change, negative = cell killing was inconclusive: -31.2% [cytotoxic].
In the case of `CCCN(CCC)C(=O)CSc1c2c(nc3ccc(Cl)cc13)CCCC2`, the Potency was inconclusive: 31.6 µM [cytotoxic, single point].
With `CCCCNc1oc(-c2ccc(COc3ccccc3C)o2)nc1C#N` the Potency was inconclusive: 20 µM [cytotoxic, single point].
For `COc1ccc2c(c1)c1c(c(=O)n(Cc3ccccc3)c(=O)n1Cc1ccccc1Cl)n2C`, the activity change, negative = cell killing was inconclusive: -33.8% [cytotoxic].
With `Cc1ccc(S(=O)(=O)N[C@H]2COC(=O)[C@@H](C)COC(=O)[C@H](C)NC(=O)C/C=C\[C@H]2C)cc1` the activity change, negative = cell killing was inactive: 0.508% [at 9.22 µM].
In the case of `C/C(=N/Nc1nc(-c2ccccc2)cc(-c2ccccc2)n1)c1ccc(N)cc1`, the Potency was inconclusive: 35.5 µM [cytotoxic, single point].
With `CC(=O)c1c(C)nn(C(=O)c2cccs2)c1C` the “activity change, negative = cell killing” value was inactive: 5.3%.
For `CCCc1nn2c(=O)cc(COC(=O)c3ccc(NC(=O)COc4ccccc4F)cc3)nc2s1`, the “activity change, negative = cell killing” value was inactive: 10%.
For `CCOc1ccc(CCNCc2c(C(=O)O)c(C)n(Cc3ccccc3F)c2C)cc1`, the “activity change, negative = cell killing” value was inactive: -3.42%.
With `COC(=O)Cc1ccc(NC(=O)c2cccs2)cc1` the Potency was inconclusive: 31.6 µM [cytotoxic, single point].
In the case of `Cc1cc(S(=O)(=O)Nc2ccc3oc4c(c3c2)CCCC4)ccc1Cl`, the Potency was inconclusive: 31.6 µM [cytotoxic, single point].
In the case of `CCOC(=O)c1c(C)[nH]c(C(=O)N/N=C/c2ccc(Br)cc2)c1C`, the Potency was inconclusive: 7.08 µM [cytotoxic, partial curve, poor fit].
In the case of `CCC(=O)[C@@]1(O)C(=O)N2C(=C3C(=O)OCCC31)N(Cc1ccccc1)C(C)=C(C(=O)OC)C2c1ccccc1` (stereo not given in full), the activity change, negative = cell killing was inactive: -8.72% [at 9.22 µM].
For `COc1cccc(Cn2c(=O)cnc3cnc(OCc4ccccc4)nc32)c1`, the “activity change, negative = cell killing” value was inactive: -14.8%.
In the case of `COc1cc(C2C(C(=O)Nc3ccccc3C)=C(C)Nc3nc(SCc4cc(C)ccc4C)nn32)ccc1O` (stereo not given), the Potency was inconclusive: 12.6 µM [cytotoxic, partial curve].
In the case of `Cc1ccc2nc3c(c(Nc4ccc(C)c(C)c4)c2c1)CCC3`, the Potency was active: 10 µM.
For `CCOCCc1nn2c(=O)cc(COC(=O)c3ccccc3NC(=O)c3ccc(C)cc3)nc2s1`, the Potency was inconclusive: 2.51 µM [cytotoxic, full curve].
In the case of `Clc1ccccc1-c1nc(-n2ccnc2)c2ccccc2n1`, the “activity change, negative = cell killing” value was inactive: 74.4%.
For `Fc1ccc(-c2cc3nc(-c4ccccc4)cc(N4CCN(CCN5CCOCC5)CC4)n3n2)cc1`, the Potency was inconclusive: 31.6 µM [cytotoxic, partial curve].
With `Cc1ccc(-c2noc(-c3cccs3)n2)cc1` the “activity change, negative = cell killing” value was inactive: -17.4%.
In the case of `Cc1nc2cc3nc(C)sc3cc2s1`, the Potency was inconclusive: 15.8 µM [cytotoxic, single point].
For `CCOC(=O)c1c(-c2cccs2)csc1NC(=O)COC(=O)c1c(C)noc1C`, the “activity change, negative = cell killing” value was inactive: -11.6%.
In the case of `CO[C@H]1COC(=O)[C@H](C)NC(=O)C/C=C\[C@@H](C)[C@@H](NS(=O)(=O)c2ccc(C)cc2)COC(=O)C/C=C\[C@@H]1C`, the activity change, negative = cell killing was inactive: 2.43% [at 9.22 µM].
In the case of `Cc1ccccc1Nc1c(-c2c[nH]c3ccccc23)nc2cccc(C)n12`, the Potency was inconclusive: 12.6 µM [cytotoxic, partial curve].
With `Cc1nn2cc(-c3ccc(N)cc3)nc2s1` the Potency was inconclusive: 20 µM [cytotoxic, single point].
For `Cc1ccccc1NC(=O)CCn1nc(-c2ccc(Cl)cc2)c2ccccc2c1=O`, the Potency was inconclusive: 10 µM [cytotoxic, single point].
For `CC1=C(C(=O)OC2CCCCCC2)C(c2ccc(Cl)cc2Cl)CC(=O)N1` (stereo not given), the Potency was inconclusive: 31.6 µM [cytotoxic, single point].
For `O=C(Cn1cnc2c(nnn2Cc2ccccc2)c1=O)NCc1ccco1`, the “activity change, negative = cell killing” value was inactive: -0.653%.
In the case of `COCCCNC(=O)c1ccc(-n2c(-c3ccccc3)cc3c2CCCCC3)cc1`, the Potency was inconclusive: 4.47 µM [cytotoxic, full curve].
For `CCOCCn1c(SCCCc2ccccc2)nc2c1c(=O)[nH]c(=O)n2C`, the “activity change, negative = cell killing” value was inactive: -13.1%.
With `Cc1c(N=c2c(=O)c3ccccc3c2=O)c(=O)n(-c2ccccc2)n1C` the Potency was active: 12.6 µM.
For `Cc1ccc(CN2C(=O)CN(C3CCCCCC3)C(=O)C2c2ccc(F)cc2)cc1` (stereo not given), the Potency was inconclusive: 10 µM [cytotoxic, single point].
For `O[C@@H](COc1cccc2ccccc12)CN1CCOCC1`, the activity change, negative = cell killing was inactive: -4.06% [at 9.22 µM].
In the case of `Cc1ccc2nc(/C(C#N)=C/c3ccc(-c4ccc(C(=O)OC(C)C)cc4)o3)[nH]c2c1`, the Potency was inconclusive: 6.31 µM [cytotoxic, full curve, poor fit].
For `CN(C)c1ccc(-c2nc(N(C)Cc3ccco3)c3ccccc3n2)cc1`, the Potency was inconclusive: 12.6 µM [cytotoxic, partial curve].
For `CCc1ccc2nc(N3CCC(C(=O)NCCC(C)C)CC3)sc2c1`, the Potency was active: 15.8 µM.
With `O=C(CCS(=O)(=O)c1cc2c(cc1Cl)NC(=O)CO2)NCc1ccccc1` the Potency was inconclusive: 10 µM [cytotoxic, partial curve].
In the case of `COc1cccc2cc(-c3nc4ccc(C)cc4[nH]3)c(=O)oc12`, the Potency was inconclusive: 2 µM [cytotoxic, full curve].
For `CCOC(=O)c1cnc(N(C)C)nc1SC(=N)N`, the activity change, negative = cell killing was inactive: 10.6% [at 9.22 µM].
For `CCOC(=O)N1CCN(S(=O)(=O)c2cc(Br)cnc2N)CC1`, the “activity change, negative = cell killing” value was inactive: -11.6%.
In the case of `NNc1nncc2ccccc12`, the Potency was active: 10 µM.
With `O=C(CSc1nnc2[nH]c(=O)cc(-c3ccccc3)n12)Nc1ccccc1C(F)(F)F` the Potency was inconclusive: 1.41 µM [cytotoxic, full curve, poor fit].
For `Cc1cccc(NC(=O)Nc2ccc(C)c(C)c2)n1`, the Potency was inconclusive: 12.6 µM [cytotoxic, single point].
For `O=c1c2cccnc2n(Cc2ccc(Cl)cc2)c(=O)n1Cc1ccc(F)cc1`, the Potency was inconclusive: 5.01 µM [cytotoxic, partial curve].
On the % scale 0 is the no-effect control and ±100 the full control effect; potency means the concentration at half of the fitted maximal effect; tags describe the fitted curve by direction and shape.
